Assay results published in EP0745599A2, “1-(3-Heterocyclylphenyl)-s-triazine-2,4,6-oxo or thiotrione herbicidal agents” (American Cyanamid Company, priority 1995, dated 1996).
The name of at least one read-out is uncertain.

Key:
Assay type in all cases: in vivo
Conditions in all cases: rated four to five weeks after treatment
[1] = system: SETARIA VIRIDIS, (L) BEAU; assay: Preemergence herbicidal evaluation, SETVI (Foxtail, Green)
From the text: (§1) Results of herbicide evaluation are expressed on a rating scale (0-9). The scale is based upon a visual observation of plant stand, vigor, malformation, size, chlorosis and overall plant appearance as compared with a control.
(§2) The preemergence herbicidal activity of the test compounds of the present invention is exemplified by the following tests in which the seeds of a variety of monocotyledonous and dicotyledonous plants are separately mixed with potting soil and planted on top of approximately one inch of soil in separate pint cups. After planting, the cups are sprayed with the selected aqueous acetone solution containing test compound in sufficient quantity to provide the equivalent of about 0.125 to 0.50 kg per hectare of test compound per cup. The treated cups are then placed on greenhouse benches, watered and cared for in accordance with conventional greenhouse procedures. From four to five weeks after treatment, the tests are terminated and each cup is examined and rated according to the rating system provided in Example 42.

GALIUM APARINE [2] = assay: Preemergence herbicidal evaluation, GALAP (Galium)
From the text: as §1, §2

[3] = system: ORYZA SATIVA, L. TEBONNET; assay: Postemergence herbicidal evaluation, ORYSAT (Rice, Tebonnet)
Procedure, shortened: (§3)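 Visual 0–9 ratings against untreated control, taken four to five weeks post-spray, score stand, vigor, malformation, size, chlorosis and overall appearance. Treatment was a postemergence spray at about 0.125 to 0.500 kg/ha on roughly two-week-old seedlings.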

[4] = system: ORYZA SATIVA, L. TEBONNET; assay: Preemergence herbicidal evaluation, ORYSAT (Rice, Tebonnet)
From the text: as §1, §2

CASSIA OBTUSIFOLIA, L. [5] = assay: Preemergence herbicidal evaluation, CASOB (Sicklepod)
From the text: as §1, §2

GALIUM APARINE [6] = assay: Postemergence herbicidal evaluation, GALAP (Galium)
[7] = system: GLYCINE MAX(L)MERR. CV. WILLIAMS; assay: Postemergence herbicidal evaluation, GLXMAW (Soybean, Williams)
Procedure, shortened: as §3

CASSIA OBTUSIFOLIA, L. [8] = assay: Postemergence herbicidal evaluation, CASOB (Sicklepod)
Procedure, shortened: as §3

CHENOPODIUM ALBUM, L. [9] = assay: Postemergence herbicidal evaluation, CHEAL (Lambsquarters, Common)
Procedure, shortened: as §3

IPOMOEA SPP. = assay: Postemergence herbicidal evaluation, IPOSS (Morningglory Spp.)
[10] = system: ECHINOCHLOA CRUS-GALLI, (L) BEAU; assay: Preemergence herbicidal evaluation, ECHCG (Barnyardgrass)
From the text: as §1, §2

CHENOPODIUM ALBUM, L. [11] = assay: Preemergence herbicidal evaluation, CHEAL (Lambsquarters, Common)
From the text: as §1, §2

[12] = system: TRITICUM AESTIVUM, CV. APOLLO; assay: Postemergence herbicidal evaluation, TRZAWO (Wheat, Winter, CV. APOLLO)
Procedure, shortened: as §3

[13] = system: ABUTILON THEOPHRASTI, MEDIC.; assay: Postemergence herbicidal evaluation, ABUTH (Velvetleaf)
Procedure, shortened: as §3

[14] = system: AMBROSIA ARTEMISIIFOLIA, L.; assay: Postemergence herbicidal evaluation, AMBEL (Ragweed, Common)
Procedure, shortened: as §3

COC(=O)Cn1c(=O)n(C)c(=O)n(-c2cc(N3C(=O)C4=C(CCCC4)C3=O)c(F)cc2F)c1=O [Compound 10, Methyl 3-[5-(1-cyclohexene-1,2-dicarbox-imido)-2,4-difluorophenyl]-5-methyl-2,4,6-trioxo-s-triazine-1(2H)-acetate]
3.5: Herbicide rating (0-9) ORYSAT ([3]; 0.250 kg/ha) | Herbicide rating (0-9) GLXMAW ([7]; 0.125 kg/ha) | Herbicide rating (0-9) TRZAWO ([12]; 0.125 kg/ha) | Herbicide rating (0-9) TRZAWO ([12]; 0.250 kg/ha)
5.0: Herbicide rating (0-9) IPOSS (IPOMOEA SPP.; 0.500 kg/ha)
1.0: Herbicide rating (0-9) SETVI ([1]; 0.125 kg/ha) | Herbicide rating (0-9) CASOB (CASSIA OBTUSIFOLIA, L. [8]; 0.125 kg/ha)
4.0: Herbicide rating (0-9) SETVI ([1]; 0.250 kg/ha) | Herbicide rating (0-9) GALAP (GALIUM APARINE [2]; 0.500 kg/ha) | Herbicide rating (0-9) ORYSAT ([3]; 0.500 kg/ha) | Herbicide rating (0-9) CASOB (CASSIA OBTUSIFOLIA, L. [5]; 0.125 kg/ha) | Herbicide rating (0-9) GLXMAW ([7]; 0.250 kg/ha) | Herbicide rating (0-9) IPOSS (IPOMOEA SPP.; 0.250 kg/ha) | Herbicide rating (0-9) TRZAWO ([12]; 0.500 kg/ha) | Herbicide rating (0-9) AMBEL ([14]; 0.125 kg/ha) | Herbicide rating (0-9) AMBEL ([14]; 0.250 kg/ha)
0.0: Herbicide rating (0-9) ORYSAT ([4]; 0.500 kg/ha) | Herbicide rating (0-9) GALAP (GALIUM APARINE [6]; 0.125 kg/ha) | Herbicide rating (0-9) GALAP (GALIUM APARINE [6]; 0.500 kg/ha) | Herbicide rating (0-9) CASOB (CASSIA OBTUSIFOLIA, L. [8]; 0.500 kg/ha) | Herbicide rating (0-9) CHEAL (CHENOPODIUM ALBUM, L. [9]; 0.125 kg/ha) | Herbicide rating (0-9) CHEAL (CHENOPODIUM ALBUM, L. [9]; 0.500 kg/ha) | Herbicide rating (0-9) ECHCG ([10]; 0.125 kg/ha) | Herbicide rating (0-9) ECHCG ([10]; 0.250 kg/ha)
6.0: Herbicide rating (0-9) CASOB (CASSIA OBTUSIFOLIA, L. [5]; 0.250 kg/ha) | Herbicide rating (0-9) CASOB (CASSIA OBTUSIFOLIA, L. [5]; 0.500 kg/ha) | Herbicide rating (0-9) ABUTH ([13]; 0.125 kg/ha) | Herbicide rating (0-9) ABUTH ([13]; 0.250 kg/ha) | Herbicide rating (0-9) AMBEL ([14]; 0.500 kg/ha)
2.0: Herbicide rating (0-9) ORYSAT ([4]; 0.125 kg/ha) | Herbicide rating (0-9) ORYSAT ([4]; 0.250 kg/ha) | Herbicide rating (0-9) GALAP (GALIUM APARINE [6]; 0.250 kg/ha) | Herbicide rating (0-9) CASOB (CASSIA OBTUSIFOLIA, L. [8]; 0.250 kg/ha) | Herbicide rating (0-9) CHEAL (CHENOPODIUM ALBUM, L. [9]; 0.250 kg/ha)
8.0: Herbicide rating (0-9) IPOSS (IPOMOEA SPP.; 0.125 kg/ha) | Herbicide rating (0-9) CHEAL (CHENOPODIUM ALBUM, L. [11]; 0.500 kg/ha)
9.0: Herbicide rating (0-9) CHEAL (CHENOPODIUM ALBUM, L. [11]; 0.250 kg/ha) | Herbicide rating (0-9) ABUTH ([13]; 0.500 kg/ha)
4.5: Herbicide rating (0-9) GLXMAW ([7]; 0.500 kg/ha)
3.0: Herbicide rating (0-9) SETVI ([1]; 0.500 kg/ha) | Herbicide rating (0-9) GALAP (GALIUM APARINE [2]; 0.250 kg/ha) | Herbicide rating (0-9) ORYSAT ([3]; 0.125 kg/ha) | Herbicide rating (0-9) ECHCG ([10]; 0.500 kg/ha) | Herbicide rating (0-9) CHEAL (CHENOPODIUM ALBUM, L. [11]; 0.125 kg/ha)
